The full ranking holds about 33,000 sequences; the median of “E-score (-0.5 to 0.5)” is about -0.012, and the highest 2% start at about 0.27. Some of the results follow.
molecular target: T1, Vhr1 (UniProt P40522); test: PBM E-score (8-mer binding enrichment) (E-score (-0.5 to 0.5)); higher = stronger / more preferred TF binding; most listed sequences are background and not binding sites; conditions: protein concentration: 200 nM; construct: GST-full length
T1 sequence: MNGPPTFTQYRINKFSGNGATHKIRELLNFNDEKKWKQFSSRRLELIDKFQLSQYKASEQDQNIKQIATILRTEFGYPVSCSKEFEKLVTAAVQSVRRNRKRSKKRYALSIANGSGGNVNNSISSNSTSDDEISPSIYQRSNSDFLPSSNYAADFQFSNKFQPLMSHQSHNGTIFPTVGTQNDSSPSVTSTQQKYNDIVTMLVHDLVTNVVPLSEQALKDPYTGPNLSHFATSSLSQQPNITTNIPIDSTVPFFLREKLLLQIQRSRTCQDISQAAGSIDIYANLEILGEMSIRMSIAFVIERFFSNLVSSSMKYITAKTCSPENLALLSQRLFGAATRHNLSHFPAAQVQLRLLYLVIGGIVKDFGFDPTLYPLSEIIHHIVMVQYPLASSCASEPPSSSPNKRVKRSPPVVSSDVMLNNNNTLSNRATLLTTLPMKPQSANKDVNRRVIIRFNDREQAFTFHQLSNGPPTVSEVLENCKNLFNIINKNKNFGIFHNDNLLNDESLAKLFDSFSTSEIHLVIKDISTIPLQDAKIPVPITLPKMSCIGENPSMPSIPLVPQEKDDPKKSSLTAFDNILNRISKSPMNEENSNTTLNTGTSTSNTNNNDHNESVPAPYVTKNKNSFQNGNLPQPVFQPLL
How it was run: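 Bound GST-tagged yeast transcription factors, applied at about 100-200 nM to double-stranded universal all-10-mer Agilent arrays, were detected with fluorescent anti-GST. Scans were normalised with masliner. A modified Wilcoxon-Mann-Whitney statistic, the E-score, was assigned to each ungapped eight-base word pooled with its reverse complement by the Universal PBM Analysis Suite.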

Sequence | PBM E-score
CCCCGCAA | -0.00242
CCACCTTC | -0.0228
ACCCAACT | 0.108
AACCCCGC | 0.0566
AATGCTCG | -0.00963
CAAAAACA | -0.0404
AATTGTTA | -0.0275
CAATAAAC | -0.0223
CCCTTCCA | -0.235
GATTGAAC | 0.152
ACGATATC | 0.192
AACGAATC | 0.125
TACATGCA | 0.0058
ACCGATCA | 0.0148
ACTTTGCA | -0.0219
CCGTGTTC | 0.271
TACTCAAA | -0.0865
CCAGCCTA | 0.0883
ATTGGTAC | 0.173
ACGTTACA | -0.0568
AACAGCGG | -0.14
TCTCGAAA | -0.275

Sequence | PBM E-score
CGGGCTAG | -0.0423
GGTGGAAC | -0.253
TGCGGAAA | -0.216
CACTAGAG | -0.241
AGTCGCGG | 0.351
ACATATCC | 0.127
GAGCCTCC | 0.0236
TAGATGCA | -0.176
ACTGTTCC | -0.0237
AAATTGTC | -0.021
AAGTCCCG | -0.22
ACGAGAAA | 0.0269
AGCTTTGC | -0.241
AAGTTAAT | -0.0891
CTATTCCC | -0.2
ATTGGGAA | -0.0821
TGCTTTAA | 0.02
GACGTTCA | -0.194
GCGGCCCA | 0.191
CTACATTC | -0.249
GGAAAACC | -0.126
GCCCGTCA | -0.269

Sequence | PBM E-score
CATCCATC | 0.0866
GCGTCGAC | 0.197
GTTCTTGA | -0.0686
CCCTTACA | -0.0137
CCGAGTGC | 0.154
AATCCTGA | 0.161
CATGTTCA | -0.036
ATTAGTAA | 0.12
ATCGTTCG | 0.09
GAGCCCTA | -0.114
CACGAATC | 0.288
CGTATACA | 0.137
CACTTCTG | 0.0529
CATTTTTA | -0.333
AGCTGCTA | -0.202
CACTAATC | 0.19
GCTACGAC | 0.0912
CATGAGTC | 0.477
TAGAGCCA | -0.0241
AATGAATC | 0.23
CTGGAAAC | -0.0736
GCTACACA | 0.121

Sequence | PBM E-score
AACGACTC | 0.292
CAGCGCGC | 0.0451
ACCGGCAG | -0.121
AACCTAAA | -0.031
AGATGATA | 0.0454
AGGTACGA | 0.0204
GAAGCCAC | 0.0168
AAACAGCT | 0.119
GAAGCAGA | -0.215
GATGAATA | 0.149
CACACTTC | -0.0534
CATTGCCG | -0.0476
AGTAGACA | -0.00055
CCCGTCAA | -0.315
CCTTGACA | -0.105
CTTTTTGA | -0.218
ACATATCT | 0.0618
ACTTAGCC | -0.0801
CGCTGTTA | -0.0856
AATGTGTG | 0.26
